For assay [1], the target named is T1, human CD47 (human, UniProt Q08722 in part).
T1 construct: extracellular domain; also called CD47 ECD
As to the kind of experiment: SPR; protein made in E. coli. (In general: Surface plasmon resonance follows binding to a sensor surface in real time, without labels.)

Assay [2] has as its target T1, human CD47. Briefly: SPR, 25 C, 1:1 Langmuir fit.

T1 sequence (Q08722 19-139 limits assumed): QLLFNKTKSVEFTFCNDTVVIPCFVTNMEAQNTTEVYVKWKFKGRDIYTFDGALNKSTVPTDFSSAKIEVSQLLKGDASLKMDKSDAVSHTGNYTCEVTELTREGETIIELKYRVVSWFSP

B1: Wild-type SIRP-α D1 domain variant 2, SEQ ID NO: 2 (receptor)
chain: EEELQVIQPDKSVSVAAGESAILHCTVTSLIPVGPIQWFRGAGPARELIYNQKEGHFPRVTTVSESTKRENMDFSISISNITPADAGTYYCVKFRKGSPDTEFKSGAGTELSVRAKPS
As usually defined, the Kd is a measure of binding affinity in units of concentration. A high value points to weaker binding. As for B1, the equilibrium dissociation constant (Kd) with human CD47 [1] and in the assay with human CD47 [2] was 0.5 µM throughout.

For the origin of these results see patent US20200239543A1 (ALX ONCOLOGY, published 2020).
